# Laboratory results published in article PMC12136788.
# This is one part of the list.
# T1: UNK ZnF1-6 (called full-length) (human, UniProt Q9C0B0 30-357)
# T1 sequence: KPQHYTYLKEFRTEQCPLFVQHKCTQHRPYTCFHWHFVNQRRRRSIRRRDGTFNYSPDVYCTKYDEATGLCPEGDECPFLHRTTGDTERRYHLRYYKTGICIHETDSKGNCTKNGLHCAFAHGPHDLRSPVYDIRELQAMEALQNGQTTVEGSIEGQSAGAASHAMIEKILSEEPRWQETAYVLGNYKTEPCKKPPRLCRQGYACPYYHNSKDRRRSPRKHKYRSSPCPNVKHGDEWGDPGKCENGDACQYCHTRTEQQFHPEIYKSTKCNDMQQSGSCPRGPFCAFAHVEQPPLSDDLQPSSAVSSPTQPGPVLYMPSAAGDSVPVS
# B1: ENSG00000198589:be:win_5401|CDS|ENSG00000198589|bound_else_gene|NA|bound_elsewhere_windowed (ssRNA)
# RNA: GGGAGUUCUACAGUCCGACGAUCGAACACGCUUUGGAAAAGGCAGCUCCUCUCCUUCGUGAGAUUUUUGUGGAUUUUGCACCUUUUCUUUCUCGGACACUUUUGGGUAGCCAUGGACAAGAACUGCUUAUAGAAGGAACAAGUCAACAGAGGAUUGAGCAUCA
# B2: chr2:112756978:112757080:-|CDS|ENSG00000169607|unk|total|mutant (ssRNA)
# RNA: GGGAGUUCUACAGUCCGACGAUCCUUCUGGGCAAAAGGCUGACUUCAGAAUGUGUUUCUUCUAACCCAUACUCUAAGCCUUCCCGCAAGAGUUUUCAACAGUGUGAAGCUGGAUCGUCCACAACAGGAGAACUGUCAAGAAAACAACAGAGGAUUGAGCAUCA
# B3: chr19:36514967:36515079:-|CDS|ENSG00000254004|unk|total|mutant (ssRNA)
# RNA: GGGAGUUCUACAGUCCGACGAUCCAUGAAUGCACUGAAUGUGGUAAAGUGUGCUCUCGAGUCUCAUCUCUUACUCUACACCUCCGAAGUCACACAGGAAAGAAGGCAUAUAAAUGUAAUAAAUGUGGAAAAGCCUUCAGCCAGCAACAGAGGAUUGAGCAUCA
# B4: chr6:52502144:52502313:-|3pUTR|ENSG00000065308|msi1|total|mutant (ssRNA)
# RNA: GGGAGUUCUACAGUCCGACGAUCUCAGCCAUUCACAAGCAUUCAAAACCAAACCAAACAGCAGUUCAUAUACCUGCCUGAGACCGGCUGGUCCUCACCUCCAGAGCCAGCCAGCCCCGUCAGGGGCCAAACUUACUACCUUGACAACAGAGGAUUGAGCAUCA
# B5: chr13:106490488:106490589:-|3pUTR|ENSG00000125266|msi1|FALSE|unique (ssRNA)
# RNA: GGGAGUUCUACAGUCCGACGAUCAGCCAUCAGAAGUUACUUUUAGGAUGGGGGAGAGGGGCGAGAAGGGGAAAAAUGGGAAAUAGUCUGAUUUUAAUGAAAUCAAAUGUAUGUAUCAUCAGUUGGCUACGUUUUGGUUCUAUGCAACAGAGGAUUGAGCAUCA
# B6: ENSG00000107863:be:win_4151|CDS|ENSG00000107863|bound_else_gene|NA|bound_elsewhere_windowed (ssRNA)
# RNA: GGGAGUUCUACAGUCCGACGAUCAUUCAGCUACUAGUGACUCAACAAAAUCUAAGGGUUCUUGGGGAUCUGGAAAGGAUCAGUAUAGCAGGGAACUGCUUGUGUCCUCCAUCUUUGCAGCUGCUAGUCGCAAGAGGAAGAAGCCAACAGAGGAUUGAGCAUCA
# B7: chr5:154417748:154417849:+|3pUTR|ENSG00000164574|msi1|total|mutant (ssRNA)
# RNA: GGGAGUUCUACAGUCCGACGAUCCAGCACCAGCUUUACAGGGCAGUGUUUCAGAUGGCCCUGAGCCCACGGAAAAGGCCAGGCCGACCUCCAAACCCGAAAUGCUGGCUGAUUUGCCCUGAUCCAUGCUUCCAUUUCCCUGUCCAACAGAGGAUUGAGCAUCA
# B8: chr1:67003359:67003460:-|3pUTR|ENSG00000116704|msi1|FALSE|unique (ssRNA)
# RNA: GGGAGUUCUACAGUCCGACGAUCACUCAAAAGCCGCAAAUCUGUAAAUUGGAUUAAGAACACCUGCCCUACCUACCCGGCAAUAGUGUGAAUCCAAAUGCUGCAAUGUGAGAUGAGGUACAAGUAAAGAGCUGUGUUUUGUAACAACAGAGGAUUGAGCAUCA
# B9: chr16:23064695:23064796:-|3pUTR|ENSG00000103404|msi1|total|mutant (ssRNA)
# RNA: GGGAGUUCUACAGUCCGACGAUCGUUUAUGGAGGGCCUUCUUUGAGCACAGAGGCAAAACUGAAAGCUUCAGGGAUUUGCUGCCGCUGAGGAGCCCUGGGAGCACAGCCCAUCAAGCAAGGGAUGUGAUGGUGUCCUAAAUGGCAACAGAGGAUUGAGCAUCA
# B10: ENSG00000198589:be:win_7401|CDS|ENSG00000198589|bound_else_gene|NA|bound_elsewhere_windowed (ssRNA)
# RNA: GGGAGUUCUACAGUCCGACGAUCUUCUCAACUACUCAUAGAGCCCCAUCCUCCCAGAGGUUCUGCCAUGCAAGUGAGUCCAUUGAUGUUCACAGACAAAGCCCAGCAGGAUGUUAUCAUGGUCCUCAAGUUUCCCUCCAACUCCAACAGAGGAUUGAGCAUCA
# B11: chr12:56416428:56416529:-|3pUTR|ENSG00000111602|msi1|total|mutant (ssRNA)
# RNA: GGGAGUUCUACAGUCCGACGAUCAUGUUCUUACCCAUUCUUGGAAACGUCAGCUUUCUUGCUUCCUGUGCUUCCAGCCGAGGCCGGGCAAAGGUGAGAUUGAGAAAACCGCCAUUCAGCUCAGGAAGGCUUCUAAGUAAAGGACAACAGAGGAUUGAGCAUCA
# B12: chr5:132696315:132696416:-|3pUTR|ENSG00000131437|msi1|FALSE|unique (ssRNA)
# RNA: GGGAGUUCUACAGUCCGACGAUCGUUGUACUACUACUCUUCAAUUGUACUGUGCAGGGAAGUUGGGGGAACAGUUCAUACUAUAGAGAGUUACAGUUUAGAUGUAUGUGUAAAUCGAUUAGCUAUUUAUCCAACUACUGUAUACAACAGAGGAUUGAGCAUCA
# B13: chr1:225845535:225846932:-|three_prime_utr|ENSG00000196187|control|control|control (ssRNA)
# RNA: GGGAGUUCUACAGUCCGACGAUCGAACAGGUUGGGAGGUGGCCAGUGCUCCUGCCAGCUGUGCACACAUCUCUGUAUCCCGCUAGAGUUCUGUGUUUUUGUAUCAUGUUGUCAGGGACGCUAGCUGGGUCAGGGUUACCCCAUCAACAGAGGAUUGAGCAUCA
# B14: chr5:35065091:35066102:-|CDS|ENSG00000113494|control|control|control (ssRNA)
# RNA: GGGAGUUCUACAGUCCGACGAUCAAAAUCCUCUCAAACCAUUAAGUCUAGAGAAGAGGGAAAGGCAACCCAGCAGAGGGAGGUAGAAAGCUUCCAUUCUGAGACUGACCAGGAUACGCCCUGGCUGCUGCCCCAGGAGAAAACCAACAGAGGAUUGAGCAUCA
# B15: chr5:43486917:43487111:-|CDS|ENSG00000172244|control|control|control (ssRNA)
# RNA: GGGAGUUCUACAGUCCGACGAUCUUAUAAACCAGGAUCUUCAGAAACCUUGCUAGGAGAAGUUAAUGAAAAUAGAGUAUCAAUAGCAUUGAAAAAAACCUCUGAAAUCCUUCACGAUAUUGACUGUCUUCUAUCAAACUCUAACAACAGAGGAUUGAGCAUCA
# B16: chr7:56063203:56063317:+|3pUTR|ENSG00000146731|unk|FALSE|unique (ssRNA)
# RNA: GGGAGUUCUACAGUCCGACGAUCCCCAUAUGAAAAAAGGAGAGAACACUGGCAUCUGUUGAAAUUUGGAAGUUCUGAAAUUAUAGUAUUUUUAAAAAUUGCACUGAAGUGUAUACACAUAAAGCAGGUCUUUUAUCCAGUGAACAACAGAGGAUUGAGCAUCA
# B17: chr12:98549999:98550103:+|3pUTR|ENSG00000120802|unk|total|mutant (ssRNA)
# RNA: GGGAGUUCUACAGUCCGACGAUCUGUUUCCCAUACUGUUUUCAGCCUUUUGUUUAUAAUCCGAAAUUGUGAGAAGCUUCAUUCCGUGUUUAAAAAUGUGGGGAGAUAAAUCAGACUUAACAUGUAUGUAAGAUCAAUUCACUUCAACAGAGGAUUGAGCAUCA
# B18: chr10:96982068:96982170:+|CDS|ENSG00000196233|unk|FALSE|unique (ssRNA)
# RNA: GGGAGUUCUACAGUCCGACGAUCUCAGCAUUGGCAUCAGAGGCAGUUUUCACUCCUAAGCAGACCCUUACAAUUCCAGCCCCUAGACAUACAGUAGAUGUGCAGCUUCCCAGAGAAGACAACCCUGAAGAACCUAGCAAGGAACAACAGAGGAUUGAGCAUCA
# B19: chr8:65724783:65724899:-|CDS|ENSG00000205268|unk|FALSE|unique (ssRNA)
# RNA: GGGAGUUCUACAGUCCGACGAUCAUAGGUGCUCUGAUACUAGCCACAGACAUCAGUCGCCAGAAUGAGUAUCUGUCUUUGUUUAGGUCCCAUUUGGAUAGAGGUGAUUUAUGCCUAGAAGACACCAGACACAGACAUUUGGUUCAACAGAGGAUUGAGCAUCA
# B20: chr7:74195289:74195308:+|CDS_3pUTR|ENSG00000106682|msi1_unk|FALSE|overlapping (ssRNA)
# RNA: GGGAGUUCUACAGUCCGACGAUCGCGACGCCCCUCAAUCAAGUAGCCAAUCCCAACUCUGCUAUCUUCGGGGGUGCCAGGCCUAGAGAGGAAGUCGUUCAAAAGGAGCAAGAAUGAGCCUGCGGUUGGGAGGGAAUGGGGCGUCAACAGAGGAUUGAGCAUCA
# B21: chrX:65741246:65741425:+|3pUTR|ENSG00000147065|msi1|total|mutant (ssRNA)
# RNA: GGGAGUUCUACAGUCCGACGAUCUAUUAUGUACUCUACUGAUAUCUAAAUAUUGAUUUCUGCCUUCCUUGCUAAUGCACCAUCCGAAGAUAUCCGUCUUGGGGCAGGAUGAUUUUGGCCUCAUUACUUUACCACCCCCACACCCAACAGAGGAUUGAGCAUCA
# B22: chr19:811491:811550:+|3pUTR|ENSG00000011304|msi1_unk|FALSE|overlapping (ssRNA)
# RNA: GGGAGUUCUACAGUCCGACGAUCUAGCAAUAUUUCCAGUUGACCAAAUAUUCUAAUCUUUUUUCAUUUAUAUGCAAAAGAAAUAGUUUUAAGUAACUUUUUAUAGCAAGAUGAUACAAUGGUAUGAGUGUAAUCUAAACUUCCCAACAGAGGAUUGAGCAUCA
# Molecular target: T1, UNK ZnF1-6 (called full-length)
# Assay: nsRBNS (natural sequence RNA bind-n-seq); RBNS binding buffer (assumed for nsRBNS): 25 mM Tris pH 7.5, 150 mM KCl, 3 mM MgCl2, 0.01% Triton X-100, 500 ug/ml BSA, 20 U/ml SUPERase-In, 4 C; UNK is unkempt and MSI1 is Musashi-1; names of the RNAs are library labels; protein concentration not given here; high values mean tight binding
row,Binder,binding signal [enrichment R]
1,B1,0.859
2,B2,0.67
3,B3,0.434
4,B4,0.694
5,B5,4.55
6,B6,0.489
7,B7,0.644
8,B8,0.49
9,B9,0.951
10,B10,0.555
11,B11,0.546
12,B12,2.26
13,B13,0.838
14,B14,0.746
15,B15,0.69
16,B16,2.8
17,B17,0.419
18,B18,1.04
19,B19,0.589
20,B20,0.875
21,B21,0.759
22,B22,0.832
